The term EC50 denotes the concentration giving half of the maximal effect.

Bridge positions count the residues as written; N and C are the ends. Square brackets hold non-standard residues; d marks the D form. Triazole bridges read from a SMILES are 1,4-linked. Ends that are not written are not given here. Peptide text beside a SMILES is read from it. * marks the point of attachment. ξ: configuration not given here. Biotinyl(3aR,4R,6aS) = O=C1N[C@@H]2[C@@H](CS[C@@H]2CCCCC(=O)*)N1; Biotin = O=C1N[C@H]2[C@H](CS[C@H]2CCCCC(=O)*)N1; Lys(N3) = [N-]=[N+]=NCCCC[C@H](N)C(=O)O; Thr(3ξ) = CC(O)[C@H](N)C(=O)O; AEEEA = NCCOCCOCCOCC(=O)O; ξR = N=C(N)NCCCC(N)C(=O)O; Pra = C#CC[C@H](N)C(=O)O

We go through eleven compounds from US12594350B2, “CD8-specific capture agents, compositions, and methods of using and making” (Regeneron Pharmaceuticals, Inc., priority 2016, dated 2026).

In data set [1] the test system is His-tagged CD8 epitopes. Put plainly: Assay to determine orientation of macrocycle binding to CD8 Epitopes1-2. Set-up: species or system human. As to conditions: polyglycine-substituted His-tagged CD8 epitopes at 2 μM. The procedure: Assay to determine orientation of macrocycle binding to CD8 Epitopes1-2. […] Wash Buffer without epitope was added as a control. […] Data are shown after subtraction of the no-epitope background.
For this experiment, the CD8 Epitope1 was re-synthesized with a His6 assay handle and polyglycine substitution of the sequences either N-terminal or C-terminal to the location of the click handle (R10) (FIG. 12A). The CD8 Epitope2 was similarly re-synthesized with a His6 assay handle and polyglycine substitution (N-terminal or C-terminal to K58) (FIG. 12B). Point ELISAs for the His-tagged CD8 epitopes were conducted against the immobilized macrocyclic peptide ligands. For PEG3-biotin-modified Cy(wplrf) (SEQ ID NO: 13), Cy(AKYRG) (SEQ ID NO: 8), Cy(rwfnv) (SEQ ID NO: 14), and Cy(ffrly) (SEQ ID NO: 17), maximum ELISA signals were obtained for binding to CD8 Epitope1N (dark bars, FIG. 12C) indicating preferential binding to the N-terminal portion of CD8 Epitope1. […] For PEG3-biotin-modified Cy(HGRGH) (SEQ ID NO: 21) and Cy(wsvnv) (SEQ ID NO: 34), maximum ELISA signals were obtained for binding to CD8 Epitope2C (light grey bars, FIG. 12D) indicating preferential binding to the C-terminal portion of CD8 Epitope2.

In data set [2] the target is His-tagged CD8α human recombinant protein (Homo sapiens, UniProt P01732). Put plainly: CD8 ELISA (affinity assay) of macrocyclic peptide ligands. (An ELISA detects its analyte on a solid surface through an enzyme-linked reagent.)
Sequence of His-tagged CD8α human recombinant protein (P01732 22-235): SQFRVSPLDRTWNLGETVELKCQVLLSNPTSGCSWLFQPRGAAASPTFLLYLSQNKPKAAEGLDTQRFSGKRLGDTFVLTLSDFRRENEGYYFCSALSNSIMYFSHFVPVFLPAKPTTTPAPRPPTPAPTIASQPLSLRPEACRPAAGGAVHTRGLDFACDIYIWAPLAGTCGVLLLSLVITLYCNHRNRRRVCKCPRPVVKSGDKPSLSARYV
For data set [3] the following is noted: mouse, in vivo, iv.

Consider `N=C(N)NCCC[C@@H]1NC(=O)CNC(=O)[C@H](Cc2c[nH]cn2)NC(=O)[C@@H](NC(=O)COCCOCCOCCNC(=O)CCCC[C@H]2SC[C@H]3NC(=O)N[C@H]32)Cc2cn(nn2)CCCC[C@@H](C(N)=O)NC(=O)[C@H](Cc2c[nH]cn2)NC(=O)CNC1=O` [biotin-PEG3-Cy(HGRGH)] ({Biotinyl(3aR,4R,6aS)-AEEEA}-[Pra]HGRGH[Lys(N3)]-NH2; triazole 1-7), for which the “epitope portion giving maximum ELISA signal (preferential binding)” value in data set [1] is reported as “CD8 Epitope2C”.

With `CC(O)[C@@H]1NC(=O)[C@H](Cc2c[nH]c3ccccc23)NC(=O)[C@@H]2CCCN2C(=O)[C@@H](NC(=O)COCCOCCOCCNC(=O)CCCC[C@H]2SC[C@H]3NC(=O)N[C@H]32)Cc2cn(nn2)CCCC[C@@H](C(N)=O)NC(=O)CNC(=O)[C@H](Cc2c[nH]cn2)NC1=O` (stereo partly drawn) [biotin-PEG3-Cy(PWTHG)] ({Biotinyl(3aR,4R,6aS)-AEEEA}-[Pra]PW[Thr(3ξ)]HG[Lys(N3)]-NH2; triazole 1-7), in data set [1], the “epitope portion giving maximum ELISA signal (preferential binding)” value is given as “CD8 Epitope2N”. On to `CC(C)C[C@H]1NC(=O)[C@@H](CCCNC(=N)N)NC(=O)[C@@H](Cc2ccccc2)NC(=O)[C@@H](Cc2ccccc2)NC(=O)[C@@H](NC(=O)COCCOCCOCCNC(=O)CCCC[C@@H]2SC[C@@H]3NC(=O)N[C@@H]32)Cc2cn(nn2)CCCC[C@@H](C(N)=O)NC(=O)[C@@H](Cc2ccc(O)cc2)NC1=O` [biotin-PEG3-Cy(ffrly)] ({Biotin-AEEEA}-[Pra][dF][dF][dR][dL][dY][Lys(N3)]-NH2; triazole 1-7), for which the EC50 in data set [2] is 56 nM. For the compound `CC(C)[C@H]1NC(=O)[C@@H](CC(N)=O)NC(=O)[C@@H](Cc2ccccc2)NC(=O)[C@@H](Cc2c[nH]c3ccccc23)NC(=O)[C@@H](CCCNC(=N)N)NC(=O)[C@@H](NC(=O)COCCOCCOCCNC(=O)CCCC[C@@H]2SC[C@@H]3NC(=O)N[C@@H]32)Cc2cn(nn2)CCCC[C@@H](C(N)=O)NC1=O` [biotin-PEG3-Cy(rwfnv)] ({Biotin-AEEEA}-[Pra][dR][dW][dF][dN][dV][Lys(N3)]-NH2; triazole 1-7), the EC50 in data set [2] amounted to 62 nM. Regarding `CC(C)C[C@H]1NC(=O)[C@@H](CO)NC(=O)[C@@H](NC(=O)COCCOCCOCCNC(=O)CCCC[C@H]2SC[C@H]3NC(=O)N[C@H]32)Cc2cn(nn2)CCCC[C@@H](C(N)=O)NC(=O)CNC(=O)[C@@H](Cc2ccccc2)NC(=O)[C@@H](CCCNC(=N)N)NC1=O` [biotin-PEG3-Cy(slrfG)] ({Biotinyl(3aR,4R,6aS)-AEEEA}-[Pra][dS][dL][dR][dF]G[Lys(N3)]-NH2; triazole 1-7), the EC50 in data set [2] is 20 nM. The “epitope portion giving maximum ELISA signal (preferential binding)” value in data set [1] is “CD8 Epitope2N”.

In the case of `CC(C)C[C@H]1NC(=O)[C@H]2CCCN2C(=O)[C@@H](Cc2c[nH]c3ccccc23)NC(=O)[C@@H](NC(=O)COCCOCCOCCNC(=O)CCCC[C@@H]2SC[C@@H]3NC(=O)N[C@@H]32)Cc2cn(nn2)CCCC[C@@H](C(N)=O)NC(=O)[C@@H](Cc2ccccc2)NC(=O)[C@@H](CCCNC(=N)N)NC1=O` [biotin-PEG3-Cy(wplrf)] ({Biotin-AEEEA}-[Pra][dW][dP][dL][dR][dF][Lys(N3)]-NH2; triazole 1-7), the EC50 in data set [2] was determined as 16 nM. Turning to `CC(C)[C@H]1NC(=O)[C@@H](CC(N)=O)NC(=O)[C@@H](C(C)C)NC(=O)[C@@H](CO)NC(=O)[C@@H](Cc2c[nH]c3ccccc23)NC(=O)[C@@H](NC(=O)COCCOCCOCCNC(=O)CCCC[C@H]2SC[C@H]3NC(=O)N[C@H]32)Cc2cn(nn2)CCCC[C@@H](C(N)=O)NC1=O` [biotin-PEG3-Cy(wsvnv)] ({Biotinyl(3aR,4R,6aS)-AEEEA}-[Pra][dW][dS][dV][dN][dV][Lys(N3)]-NH2; triazole 1-7), the “epitope portion giving maximum ELISA signal (preferential binding)” value in data set [1] is “CD8 Epitope2C”. For the compound `CC(C)[C@H]1NC(=O)CNC(=O)CNC(=O)[C@@H](Cc2ccc(O)cc2)NC(=O)[C@@H](NC(=O)COCCOCCOCCNC(=O)CCCC[C@H]2SC[C@H]3NC(=O)N[C@H]32)Cc2cn(nn2)CCCC[C@@H](C(N)=O)NC(=O)C(CCCNC(=N)N)NC1=O` (stereo partly drawn) [biotin-PEG3-Cy(yGGvr)] ({Biotinyl(3aR,4R,6aS)-AEEEA}-[Pra][dY]GG[dV][ξR][Lys(N3)]-NH2; triazole 1-7), in data set [2], the EC50 was determined as 10 nM. Consider “[^18F]FB-labeled Cy(AKYRG): macrocycle anchor Cy(AKYRG), aminooxy-derivatized and labeled with 4-[^18F]fluorobenzaldehyde (oxime) (triazole (positions not given here); not fully specified (N-terminus, C-terminus, bridges); also: exact cyclisation residues not given here)”, for which, in data set [3], the “biodistribution and clearance route by PET (in words)” value (shortened to “biodistribution and clearance route”) is recorded as “kidney clearance to the bladder (on the order of one hour) with little liver activity”; the “location of the peptide by 2 hours post-injection” value is given as “mostly in the bladder”. On to “[^18F]FB-labeled Cy(HGRGH): macrocycle anchor Cy(HGRGH), aminooxy-derivatized and labeled with 4-[^18F]fluorobenzaldehyde (oxime) (triazole (positions not given here); not fully specified (N-terminus, C-terminus, bridges); also: exact cyclisation residues not given here)”, for which, in data set [3], the “activity in the intestine at 1-2 hours” value was “small amount of activity in the intestine”; the “biodistribution and clearance route” value is recorded as “kidney clearance to the bladder (on the order of one hour) with little liver activity”. Regarding “[^18F]FB-labeled Cy(wplrf): macrocycle anchor Cy(wplrf), aminooxy-derivatized and labeled with 4-[^18F]fluorobenzaldehyde (oxime) (WPLRF; not fully specified; cyclic; aminooxy; [18F]fluorobenzaldehyde oxime label; VARIANT (1)..(5) D-amino acid)”, the “biodistribution and clearance route” value in data set [3] is “predominantly liver and intestinal uptake with some clearance to the bladder at 2 hours post-injection”.
